The assay deals with Plasmodium falciparum NF54 stage V gametocytes. Kind of assay: viability index relative to DMSO control (fraction); higher = less gametocyte killing. Conditions: 2.5 µM, incubation time: 72 h. In short, it runs like this:
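Viability index is the count of red-stained particles in a well divided by the plate mean of solvent-only wells. Particles of 20–70 µm2 were counted in one imaged field per well after one to two hours with 3 µl of 2.5 µM MitoTracker Red CMXRos and 0.13% saponin. Before staining, P. falciparum NF54 stage V gametocytes in serum-free medium (0.75% gametocytemia, 1.25% hematocrit, 10 µl, 1,536-well plates) were kept with compound at 2.5 µM for 72 hr at 37°C under low oxygen.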

The mark [1] stands for this setting: library set: Broad Institute DOS.

This passage reports viability index results from the supplement of paper PMC4723716.

± gives the uncertainty stated by the source. In all, about 9,900 compounds were measured (“viability index relative to DMSO control”: median about 1, lowest 2% from about 0.85 on). Some of the results follow.

Under setting [1], `CN1C(=O)c2cc(NC(=O)C3CCOCC3)ccc2OC[C@H]2O[C@H](CC(=O)NCc3ccccc3F)CC[C@H]21` displayed a viability index of 0.983 ± 0.065.

For the molecule `COc1cccc(S(=O)(=O)N(C)C[C@@H]2Oc3ncc(C#Cc4ccc(OC)c(OC)c4)cc3C(=O)N([C@H](C)CO)C[C@@H]2C)c1`, under “library set: Broad Institute Blood Stage”, the viability index worked out at 1.01 ± 0.04.

Regarding `CO[C@H]1CN(C)C(=O)c2ccc(NC(=O)C3CC3)cc2OC[C@@H](C)N(C(C)=O)C[C@@H]1C`, under setting [1], the viability index was 1.06 ± 0.043.

`CCCN1CC[C@@]2(CC1)CN(Cc1ccc3OCOc3c1)[C@H](CO)c1[nH]c3cc(OC)ccc3c21` yielded a viability index under setting [1] of 0.993 ± 0.088.

Under setting [1], `C/C=C/c1ccccc1[C@H]1[C@@H](CO)N(C(=O)Nc2cccc(F)c2)[C@H]1C#N` gave a viability index of 1.0857 ± 0.00036.

In turn, `Cc1noc(C)c1NC(=O)Nc1ccc2c(c1)C(=O)N([C@@H](C)CO)C[C@H](C)[C@@H](CN(C)S(=O)(=O)c1cccs1)OCCCC[C@H](C)O2` had a viability index under setting [1] of 1.09 ± 0.0097.

As to `CNC[C@@H]1OCc2cnnn2CCCC(=O)N([C@H](C)CO)C[C@@H]1C`, the viability index under setting [1] is 1.05 ± 0.061.

As to `O=S(=O)(c1ccc(F)cc1)N1C[C@@H]2[C@H](c3ccccc31)[C@H](CO)N2Cc1ccccc1Cl`, the viability index under setting [1] was found to be 1.06 ± 0.1.

The molecule `CO[C@@H]1CN(C)C(=O)c2ccc(NC(=O)C3CC3)cc2OC[C@H](C)N(C(C)=O)C[C@@H]1C` came in with a viability index under setting [1] of 1.139 ± 0.008.

`CN1C(=O)c2cc(NS(C)(=O)=O)ccc2OC[C@H]2O[C@H](CC(=O)N3CCOCC3)CC[C@@H]21` registered a viability index under setting [1] of 1.11 ± 0.044.

Molecule `COC(=O)[C@H]1[C@H](CO)[C@H]2Cn3c(ccc(C4=CCCCC4)c3=O)[C@H]2N1C(=O)c1ccccc1F` registered a viability index under setting [1] of 1.02 ± 0.024.

For the molecule `CO[C@@H]1CN(C)C(=O)c2ccc(NC(C)=O)cc2OC[C@@H](C)N(C(=O)c2cnccn2)C[C@@H]1C`, the viability index under setting [1] came to 1.1 ± 0.04.

For `N#Cc1ccc(-c2ccc([C@@H]3[C@@H]4CN(C(=O)c5cccnc5)C[C@H]3N4)cc2)cc1`, the viability index under setting [1] was 0.81 ± 0.2.

For `C/C=C/c1ccccc1[C@@H]1[C@@H](C#N)N(C(=O)c2cccnc2)[C@H]1CO`, under setting [1], the viability index was 1.11 ± 0.017.

`C[C@H](O)C#Cc1ccc([C@H]2[C@H]3CN(CC4CC4)CCCCN3[C@H]2CO)cc1` came in with a viability index under setting [1] of 1.05 ± 0.039.

For the molecule `O=S(=O)(c1ccccc1)N1CCCCN2[C@H](CO)[C@H](c3ccc(C#CC4CCCC4)cc3)[C@@H]2C1`, the viability index under setting [1] is 1.02 ± 0.016.

`C[C@@H]1CN([C@H](C)CO)C(=O)c2c(c3ccccc3n2C)-c2ccccc2CO[C@@H]1CN(C)C(=O)Nc1ccccc1C(F)(F)F`: the viability index under setting [1] was 1.022 ± 0.0024.

Molecule `C[C@@H]1CN([C@H](C)CO)C(=O)c2cc(N(C)C)ccc2O[C@H]1CN(C)CC1CCCCC1` registered a viability index under setting [1] of 1.04 ± 0.087.

Turning to `O=S(=O)(NC[C@@H]1[C@H](c2ccccc2)[C@@H](CO)N1CC1CC1)c1ccccc1`, the viability index under setting [1] was 1.041 ± 0.006.

For the molecule `Cc1ccc(S(=O)(=O)Nc2ccc3c(c2)C(=O)N([C@H](C)CO)C[C@H](C)[C@H](CN(C)Cc2ccc(C(F)(F)F)cc2)O3)cc1`, under setting [1], the viability index was 1.06 ± 0.04.

Regarding `CCc1nc(N2[C@@H](C#N)[C@@H](c3ccccc3-c3ccccc3C)[C@@H]2CO)sc1C`, under setting [1], the viability index amounted to 1.08 ± 0.12.

Regarding `COc1ccc2c3c([C@@H](CO)N(C[C@]33CN(CC4CCOCC4)C3)C(=O)c3ccc(F)cc3)n(C)c2c1`, the viability index under setting [1] is 0.969 ± 0.075.

On to `O=C(c1cccc(F)c1)N1CC(=O)N2[C@@H](CO)[C@H](c3ccc(/C=C/c4ccccc4)cc3)[C@@H]2C1`, for which the viability index under setting [1] was 1.08 ± 0.022.

Regarding `O=C(N[C@@H]1C=C[C@H](CC(=O)N2CCN(c3ccccc3)CC2)O[C@@H]1CO)c1ccccc1`, under setting [1], the viability index was determined as 1.17 ± 0.04.

Molecule `CCC(=O)NC[C@H]1[C@@H](c2ccc(-c3ccc(C#N)cc3)cc2)[C@@H](CO)N1CCC(F)(F)F` yielded a viability index under setting [1] of 1.01 ± 0.028.

Take `O=C(C[C@H]1C=C[C@@H](NC(=O)C2CCC2)[C@@H](CO)O1)NC1CCCCC1`: the viability index under setting [1] came to 1.09 ± 0.049.

Turning to `C/C=C/c1ccc2n(c1=O)C[C@H]1[C@H](CO)[C@@H](C(=O)N3CCOCC3)[C@@H]2N1CC1CCCC1.C/C=C\c1ccc2n(c1=O)C[C@H]1[C@H](CO)[C@@H](C(=O)N3CCOCC3)[C@@H]2N1CC1CCCC1`, the viability index under setting [1] came to 1.12 ± 0.042.

In turn, `Cc1cccc(S(=O)(=O)N2C[C@H](O)COC[C@@H]3O[C@H](CC(=O)Nc4ccccc4)CC[C@H]32)c1` registered a viability index under setting [1] of 1.13 ± 0.027.

Under setting [1], `C[C@@H]1CN([C@@H](C)CO)C(=O)c2cc(NC(=O)Cn3cnnn3)ccc2O[C@H]1CN(C)C(=O)Nc1ccc2c(c1)OCO2` had a viability index of 1.04 ± 0.069.

Molecule `C[C@@H](NC(=O)C[C@@H]1CC[C@@H]2[C@H](COC[C@@H](O)CN2Cc2ccc(C(F)(F)F)cc2)O1)c1ccccc1` displayed a viability index under setting [1] of 1.05 ± 0.031.

On to `CN1CCCCN2[C@H](C1)[C@H](c1ccc(-c3ccc(F)cc3)cc1)[C@@H]2CO`, for which, under setting [1], the viability index turned out to be 1.0465 ± 0.00013.

The molecule `COc1ccccc1-c1ccc([C@@H]2[C@@H]3CN(S(=O)(=O)c4ccc(C)cc4)C[C@H]2N3)cc1` returned a viability index under setting [1] of 0.91636 ± 0.00034.

`Cc1cccc(-c2ccc([C@H]3[C@@H]4CN(C(=O)Nc5ccc(F)cc5)C[C@H]3N4)cc2)c1` had a viability index under setting [1] of 1.048 ± 0.002.

For `COCC(=O)N1[C@@H]2c3ccc(-c4ccncc4)c(=O)n3C[C@@H]2[C@@H](CO)[C@@H]1C(=O)Nc1ccccc1`, under setting [1], the viability index is 1.089 ± 0.0081.

For `Cc1cccc(S(=O)(=O)N[C@@H]2CC[C@@H](CCNC(=O)Nc3cc(F)ccc3F)O[C@H]2CO)c1`, under setting [1], the viability index amounted to 1.1 ± 0.039.
